# Measured values from publication PMC4336329 (PLoS ONE, 2015).
# Screen size: about 310,000 compounds; about 2,200 (0.71%) showed an effect of 50% or more. Effects have a minus sign here. Some of the results follow.
# Target: human ether-à-go-go-related gene (hERG) potassium channel (human, UniProt Q12809)
# Test: primary screen, population patch clamp on CHO cells stably expressing hERG
# Sequence of human ether-à-go-go-related gene (hERG) potassium channel (Q12809 whole entry, looked up): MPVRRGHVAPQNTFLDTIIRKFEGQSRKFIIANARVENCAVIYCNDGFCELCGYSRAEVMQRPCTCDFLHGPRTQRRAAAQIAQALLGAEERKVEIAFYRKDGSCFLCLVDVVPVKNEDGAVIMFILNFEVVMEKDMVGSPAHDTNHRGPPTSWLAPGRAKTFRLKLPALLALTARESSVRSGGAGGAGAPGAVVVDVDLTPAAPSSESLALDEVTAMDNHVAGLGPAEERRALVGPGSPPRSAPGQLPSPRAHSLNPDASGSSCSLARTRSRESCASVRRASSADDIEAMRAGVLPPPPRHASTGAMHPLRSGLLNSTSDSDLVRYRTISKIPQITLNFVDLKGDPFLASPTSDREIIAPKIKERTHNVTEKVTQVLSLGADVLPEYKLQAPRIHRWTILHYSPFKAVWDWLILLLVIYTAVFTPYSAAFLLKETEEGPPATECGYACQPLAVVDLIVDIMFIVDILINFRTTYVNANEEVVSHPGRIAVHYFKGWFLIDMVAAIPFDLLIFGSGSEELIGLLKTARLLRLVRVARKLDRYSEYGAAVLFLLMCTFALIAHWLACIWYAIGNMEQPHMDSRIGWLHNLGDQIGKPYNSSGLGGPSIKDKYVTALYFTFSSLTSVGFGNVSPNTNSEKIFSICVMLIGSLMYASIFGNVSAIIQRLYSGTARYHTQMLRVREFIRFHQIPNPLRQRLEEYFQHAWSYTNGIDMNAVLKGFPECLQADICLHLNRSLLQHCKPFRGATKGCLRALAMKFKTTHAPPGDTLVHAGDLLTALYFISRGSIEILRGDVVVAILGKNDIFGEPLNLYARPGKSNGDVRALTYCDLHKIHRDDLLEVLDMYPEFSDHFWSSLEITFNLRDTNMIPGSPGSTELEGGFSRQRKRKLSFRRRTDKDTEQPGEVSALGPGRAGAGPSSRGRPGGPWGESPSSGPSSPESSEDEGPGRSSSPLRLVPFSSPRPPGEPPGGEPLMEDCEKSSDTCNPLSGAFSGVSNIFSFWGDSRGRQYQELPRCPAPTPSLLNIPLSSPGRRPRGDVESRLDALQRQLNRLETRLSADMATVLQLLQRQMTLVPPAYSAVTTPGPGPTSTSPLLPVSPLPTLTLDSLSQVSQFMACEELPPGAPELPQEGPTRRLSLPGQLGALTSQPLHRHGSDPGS
row,Structure (SMILES),"hERG current change (%, negative = inhibition) at 1uM"
1,COc1ccc(OC)c(C(=O)c2coc3ccc(O)c(CN4CCOCC4)c23)c1,-6.28%
2,CCCN(CC(=O)Nc1ccccc1C)C(=O)c1ccc(C(=O)c2ccccc2)cc1,15.5%
3,CCC1CO/C(=C(\C(Cl)=C(Cl)Cl)[N+](=O)[O-])N1Cc1ccc(Cl)nc1 (centres unmarked),-18.5%
4,CCN(CC)CCN1C(=O)C(=O)/C(=C(/O)c2ccccc2)C1c1ccccc1F (centres unmarked),10.9%
5,Cc1ccc(C2=NN(CC(=O)NCCN(C)C)C(=O)CC2)cc1,-3.05%
6,S=C(NC1CCCCC1)NC1CC2C=CC1C2 (centres unmarked),10.8%
7,O=S(=O)(c1ccccc1)c1nc(Nc2cccc(O)c2)sc1Cl,-1.32%
8,CCCn1nnnc1SCC(=O)NCc1cccs1,7.16%
9,COc1cccc(CNCCc2ccccc2)c1OC.Cl,12.3%
10,CNc1ccccc(C(=O)/C=C/c2ccccc2OC)c1=O,9.23%
11,C=CCN1C(=O)N/C(=C/c2ccccc2OCC(=O)Nc2ccc(F)cc2)C1=O,0.196%
12,Cc1ccc(SCCC(=O)OCC(=O)Nc2ncc(Cl)cc2Cl)cc1,-0.748%
13,COCCN(C(=O)CCC(=O)Nc1cccnc1)C(C(=O)NC1CCCCC1)c1ccccc1 (centres unmarked),2.11%
14,COC(=O)N/N=C(\C)c1ccc2ccccc2c1OC(F)F,14.8%
15,CCN(CC)S(=O)(=O)c1ccc(C(=O)NNC(=O)C2CCN(S(=O)(=O)c3ccc(Cl)cc3)CC2)cc1,2.1%
16,Cc1ccccc1NS(=O)(=O)c1ccc2c(c1)NC(=O)CCS2,9.65%
17,CCC(C)(C)n1nnnc1CN(Cc1cc2cc(OC)ccc2[nH]c1=O)C1CCCC1,3.27%
18,COC(=O)c1ccc(OC(=O)CCN2C(=O)C3CCCCC3C2=O)cc1 (centres unmarked),2.26%
19,O=C1NC(=O)N(Cc2ccccc2)C(=O)/C1=C/c1cnn(-c2ccccc2)c1,5.55%
20,O=C(NC1(C(F)(F)F)NC(=O)N(c2ccccc2)C1=O)c1cccs1 (centres unmarked),5.42%
21,CCOC(=O)C1CCN(S(=O)(=O)c2ccc3c4c2CC(=O)N4CC(C)S3)CC1 (centres unmarked),1.26%
22,c1csc(-c2nc(-c3ccc(-c4ccon4)s3)no2)c1,14.9%
23,COc1ccc(-c2cc3nc(-c4ccccc4)cc(N4CCC5(CC4)OCCO5)n3n2)cc1,12.9%

row,Structure (SMILES),"hERG current change (%, negative = inhibition) at 1uM"
1,Cc1ccc(C(=O)Nc2ncccc2S(=O)(=O)c2ccccc2)cc1,8.09%
2,CC1(C(=O)Nc2cccc(C(F)(F)F)c2)CO1 (centres unmarked),22.6%
3,O=[N+]([O-])c1cc(C(F)(F)F)ccc1NCCOc1ccccc1,-0.92%
4,CCOc1ccc2nc(NC(=O)CSc3ccc(Cl)cc3)sc2c1,15.3%
5,Cc1ccc(NC(=O)c2ccccc2F)c(NC(=O)c2ccccc2F)c1,8.6%
6,CCc1cccc(NC(=S)Nc2cccc3ccccc23)c1,12.1%
7,COc1ccc(-c2nc(=S)c3c(n2Cc2cccnc2)CC(C)(C)OC3)cc1,10.7%
8,CC(=O)Nc1ccc(S(=O)(=O)N[C@@H](C)C(=O)N(C)Cc2cccs2)cc1,11.6%
9,O=C(NCc1ccc(Cl)cc1)c1ccccc1Oc1ccccc1,4.89%
10,O=C(NCC1CCCO1)c1sc2ccccc2c1Cl (centres unmarked),11.3%
11,Cc1ccc2nc(N3CCN(C(=O)CCCC(=O)O)CC3)nc(-c3ccccc3)c2c1,0.553%
12,Cn1cc(CNC(=O)COc2ccc(Cl)cc2Cl)cn1,13.3%
13,O=C(OCC(=O)N1CCOCC1)c1ccc2c(c1)OCCO2,7.47%
14,CCOc1cc(C=O)ccc1OCCCN1C(=O)NC(C)(C)C1=O,14%
15,CC1(C)CC(N2CCN(CCO)CC2)=CC(=S)N1,12.1%
16,O=C(Nc1ccc(F)cc1)c1c(O)c2c(n(Cc3ccccc3)c1=O)CCCC2,-2.97%
17,O=C(CSc1nnc(-c2ccncc2)n1-c1ccc(F)cc1)NNC(=O)c1cccc(O)c1,-1.06%
18,COc1ccc(-c2ccc(SCC(=O)c3ccc(F)cc3)nn2)cc1OC,6.12%
19,COc1ccc(CNN2CCCCC2C(=O)Nc2ccc(OC)c(OCC(C)C)c2)cc1OC (centres unmarked),-4.36%
20,COc1cc(S(=O)(=O)NCCCN2CCOCC2)ccc1-n1cnnn1.O=C(O)C(=O)O,7.1%
21,Nc1ccc(C(=O)C(=O)c2ccccc2)cc1,10.4%
22,O=C1c2ccccc2NC(c2ccc(Cl)cc2Cl)N1O (centres unmarked),11.1%
23,O=C1CC(C(=O)N2CCC(N3CCC(C(=O)NC4CC4)CC3)CC2)c2ccccc21 (centres unmarked),-0.352%

row,Structure (SMILES),"hERG current change (%, negative = inhibition) at 1uM"
1,CCN(CC)CCN1C(=O)c2oc3ccccc3c(=O)c2C1c1ccc(F)cc1 (centres unmarked),-0.934%
2,O=C(Nc1ccc(Cl)cc1)C1CCCN(c2ncnc3c2nc2n3CCCCC2)C1 (centres unmarked),5.78%
3,Cc1ccc(S(=O)(=O)N(CCC(=O)Nc2ccc(OC(F)(F)F)cc2)c2ccccc2)cc1,1.05%
4,Cc1ccc2[nH]c(C(=O)N3CCCC(Nc4ccc(F)cc4)C3)cc2c1 (centres unmarked),9.25%
5,Cc1ccc(S(=O)(=O)c2cn(C)c3cc(N4CCN(C)CC4)c(F)cc3c2=O)cc1,5.39%
6,COc1ccccc1-c1nnc(-c2ccc(F)cc2)o1,4.4%
7,CN(C)S(=O)(=O)c1cccc(NC(=O)c2cc3ccccc3o2)c1,-1.27%
8,O=C(Cc1ccccc1)NC(Nc1cccc2ccccc12)C(Cl)(Cl)Cl (centres unmarked),9.32%
9,COC(=O)C(C)Sc1ccc2nnc(CCNS(=O)(=O)c3ccccc3)n2n1 (centres unmarked),8.9%
10,CC(=O)Nc1ccc(CN2CCN(C3CCCC3)C(CCO)C2)cc1 (centres unmarked),5.96%
11,Cc1ccccc1NC(=O)CCN1C(=O)c2ccccc2C1=O,4.44%
12,CC(=O)Nc1ccccc1C(=O)OCC(=O)c1ccc2c(c1)OCCO2,13.5%
13,CCN1CCCC1CNC(=O)c1ccc(Sc2ccccc2Cl)c([N+](=O)[O-])c1 (centres unmarked),-11.2%
14,CCn1cc(-c2csc(N)n2)c(C)n1,14.6%
15,O=S1(=O)CCN2C=C(Cl)C=C(Cl)C2=N1,12.2%
16,CC1CC(C)CN(C(=O)c2cc3c(s2)CCC3)C1 (centres unmarked),9.38%
17,CC(=O)c1c(C)n(-c2ccccc2)c2ccc(OCC(O)CN3CCOCC3)cc12 (centres unmarked),9.72%
18,O=C(c1cc(-c2ccc(Cl)cc2)n[nH]1)N1CCN(C(=O)c2ccco2)CC1,-69.3%
19,Cc1nc(Nc2nc(CSc3ccc(Cl)cc3)cc(=O)[nH]2)nc2ccccc12,1.09%
20,COc1ccc(NC(C)=O)cc1NC(=O)CSc1nc2ncccc2[nH]1,3.98%
21,CCN(CC)CCCNC(=O)c1ccc(OCC(=O)Nc2ccccc2C(F)(F)F)c(OC)c1,-48.1%
22,Brc1ccc(-c2nnc(-c3cccnc3)c3conc23)cc1,13.7%
23,Br.CCc1ccc(C2=CSC3=NCCN23)cc1,1.72%

row,Structure (SMILES),"hERG current change (%, negative = inhibition) at 1uM"
1,O=C(N/N=C/c1c[nH]c2ccccc12)c1cc2ccccc2o1,8.92%
2,CCOC(=O)c1ccc(N=NN(C)C)cc1,3.99%
3,COc1cccc(NC(=O)CSc2nc3c(sc4ccccc43)c(=O)n2CCN(C)C)c1.Cl,-1.91%
4,Cc1ccc(CSc2nc3nc(C)cc(C)c3c(=O)[nH]2)cc1,-4.04%
5,Cc1cc(-c2nnc(SCC(=O)Nc3ccc(F)c(F)c3)n2N)n[nH]1,-9.36%
6,CCCCn1c(N)c(N(CC(C)C)C(=O)CN(C)S(=O)(=O)c2ccc(F)cc2)c(=O)[nH]c1=O,-9.37%
7,O=C(O)C1CCN(C(=O)c2ccco2)CC1,7.07%
8,CC1(C)CCC[C@]2(C)C(CS(=O)c3ccccc3)=C(C=O)CC[C@@H]12 (some centres unmarked),6.12%
9,Cc1ccn2c(=O)c(C(=O)NCCCN3CCCC3=O)c(O)nc2c1,40.7%
10,COc1ccc(NC(=O)CSCC(=O)Oc2c(OC)cccc2OC)cc1,10.8%
11,COC(=O)C(C)n1cnc2c(nnn2-c2cccc(OC)c2)c1=O (centres unmarked),11.8%
12,O=C(NCc1ccc(Cl)cc1)c1ccc(CSc2nc3ccncc3[nH]2)cc1,10.1%
13,O=c1c2ccccc2ncn1-c1ccc([N+](=O)[O-])cc1Cl,13.9%
14,COc1cc(CNCCc2ccccc2)cc(Cl)c1OCc1ccccc1.Cl,12.2%
15,Cc1ccc(C(=O)C(OC(=O)CN2C(=O)c3ccccc3C2=O)c2ccccc2)cc1C (centres unmarked),17.9%
16,CSc1oc(-c2ccco2)nc1S(=O)(=O)c1ccccc1,8.42%
17,CCN(CC)CCNS(=O)(=O)c1ccc2[nH]cc(C(=O)O)c(=O)c2c1,10.9%
18,OCCNC(=S)NCc1ccccc1,10.4%
19,CC1CCCN(C(=O)Cc2ccc(F)cc2)C1 (centres unmarked),13.9%
20,Cc1cc(SCC(=O)Nc2cccnc2Cl)nc2ccccc12,12.8%
